Measured values: PMC4336329 (PLoS ONE, 2015)
Among all 310,000 compounds or so, about 14,000 (4.5%) showed an effect of 50% or more. The effect is printed as a negative number. Some of the results follow.

Target: human ether-à-go-go-related gene (hERG) potassium channel (human, UniProt Q12809)
Assay: primary screen, population patch clamp on CHO cells stably expressing hERG
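Note: peak tail current of the secondary pulse compared with the same well before compound.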

human ether-à-go-go-related gene (hERG) potassium channel, sequence (Q12809 whole entry, looked up): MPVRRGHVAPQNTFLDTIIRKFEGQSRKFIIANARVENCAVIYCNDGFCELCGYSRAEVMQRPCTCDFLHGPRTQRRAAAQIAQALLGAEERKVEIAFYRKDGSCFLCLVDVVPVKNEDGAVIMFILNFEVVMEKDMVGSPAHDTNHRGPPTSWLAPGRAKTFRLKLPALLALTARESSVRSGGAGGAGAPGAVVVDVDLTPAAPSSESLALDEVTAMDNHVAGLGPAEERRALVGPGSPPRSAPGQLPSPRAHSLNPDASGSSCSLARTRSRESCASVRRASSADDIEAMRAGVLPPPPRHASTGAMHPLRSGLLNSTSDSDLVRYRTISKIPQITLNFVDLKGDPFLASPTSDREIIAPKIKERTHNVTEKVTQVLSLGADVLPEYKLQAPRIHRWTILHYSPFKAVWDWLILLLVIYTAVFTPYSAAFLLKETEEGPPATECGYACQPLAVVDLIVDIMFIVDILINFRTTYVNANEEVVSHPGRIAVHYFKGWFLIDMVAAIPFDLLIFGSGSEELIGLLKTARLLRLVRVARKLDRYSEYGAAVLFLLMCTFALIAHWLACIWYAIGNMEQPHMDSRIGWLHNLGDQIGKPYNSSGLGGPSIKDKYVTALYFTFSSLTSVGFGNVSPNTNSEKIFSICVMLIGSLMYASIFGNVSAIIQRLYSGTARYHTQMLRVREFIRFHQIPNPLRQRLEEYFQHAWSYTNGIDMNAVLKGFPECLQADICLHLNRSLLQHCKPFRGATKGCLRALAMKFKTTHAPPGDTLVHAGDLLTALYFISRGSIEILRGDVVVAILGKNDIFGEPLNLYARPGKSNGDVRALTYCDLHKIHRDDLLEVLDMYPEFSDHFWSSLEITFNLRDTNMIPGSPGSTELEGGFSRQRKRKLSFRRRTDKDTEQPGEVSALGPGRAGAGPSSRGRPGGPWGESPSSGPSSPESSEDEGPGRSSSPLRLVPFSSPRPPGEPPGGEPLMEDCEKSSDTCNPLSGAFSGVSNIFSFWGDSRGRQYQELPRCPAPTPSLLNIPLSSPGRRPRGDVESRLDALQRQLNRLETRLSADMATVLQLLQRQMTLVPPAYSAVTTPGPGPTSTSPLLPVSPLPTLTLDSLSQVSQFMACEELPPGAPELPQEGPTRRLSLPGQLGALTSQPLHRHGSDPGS

SMILES	hERG current change (%, negative = inhibition) at 10uM
CCS(=O)(=O)c1ncc(CO)n1CCc1ccccc1	11%
CCOC(=O)c1oc2ccccc2c1NC(=O)c1ccc(Cl)s1	11.7%
CCCCCC(C)NC(=O)c1cc(S(=O)(=O)N2CCCCC2)ccc1N1CCOCC1 (centres unmarked)	-70.9%
CCOC(=O)C1(Cc2cccc(Cl)c2)CCCN(C(=O)CCC(=O)N(C)C)C1 (centres unmarked)	7.24%
Cc1ccc(S(=O)(=O)Nc2ccc(Cl)cn2)cc1	12.2%
Cc1ccsc1C(=O)OCC(=O)NCc1ccc2c(c1)OCO2	15.4%
COc1ccc(N(CC(=O)Nc2ccc3c(c2)OCO3)S(C)(=O)=O)c(OC)c1	2.4%
COc1cccc(NC(=O)C(=O)NCC(c2ccco2)N2CCc3ccccc3C2)c1 (centres unmarked)	-9.29%
CCc1ccc(C2(C)SC(NC(C)=O)=NN2C(C)=O)cc1 (centres unmarked)	4.03%
Cc1cccc(OCc2nnc(SCC(=O)Nc3ccc(C)c(Cl)c3)o2)c1	1.98%
COc1ccccc1NC(=O)C1C2CCCCC21 (centres unmarked)	-12.5%
Cc1cccc(NC(=O)CCNC(=O)c2ccc(Br)cc2)c1	12.7%
Nc1nc(-c2ccc3c(c2)NC(=O)CO3)cs1	15.5%
COc1nccc(NCc2ccccc2)c1C#N	5.72%
Cc1onc(-c2c(Cl)cccc2Cl)c1C(=O)N=S(C)(=O)c1ccccc1 (centres unmarked)	4.33%
CCN(C(=O)c1cc2c(=O)n3ccccc3nc2s1)C1CCCCC1	-2.99%
CCN(CC)C(=O)N1CCN(Cc2ccc3c(c2)OCO3)CC1	10.1%
CN(C)c1ccc(/C=C/C(=O)c2ccc(O)cc2)cc1[N+](=O)[O-]	2.72%
Cl.O=C(c1cc(-c2cccs2)nc2ccccc12)N1CCN(c2ccccc2)CC1	9.68%
CCOC(=O)CC1C(C(=O)OCC)ON2OC(C(=O)OC)C(C(=O)OCC)C12 (centres unmarked)	6.38%
O=C(c1ccc2c3c(cccc13)CC2)C1CCCN(Cc2ccncc2)C1 (centres unmarked)	-51.5%
O=C(C/C=N\OCc1ccc([N+](=O)[O-])cc1)Nc1ccc(Cl)cc1	-13.8%

SMILES	hERG current change (%, negative = inhibition) at 10uM
Cc1ccc(C2=NOC(C)(c3nnc(-c4cccc(Cl)c4)o3)C2)cc1 (centres unmarked)	6.17%
Cn1c2ccccc2c(=O)c2c(=O)n(-c3ccccc3)c(-c3ccc(C(C)(C)C)cc3)nc21	-7.64%
O=C(CC(=O)N/N=C/c1c(F)cccc1Cl)NCCc1ccccc1	-2.75%
Cc1ccc(S(=O)(=O)N(C)c2ccc(OC(=O)CN3C(=O)NC4(CCCC4)C3=O)cc2)cc1	-14.4%
COc1ccc(OCC(=O)NNc2nc3ccccc3s2)cc1	2.7%
O=[N+]([O-])c1cc(-c2cnc3ccccc3n2)ccc1Oc1ccc(F)cc1	3.18%
Nc1nc(NCc2ccco2)nc(Nc2ccc(F)cc2)c1[N+](=O)[O-]	12.7%
Cc1cccc(N(CC(=O)N2CCN(C)CC2)S(=O)(=O)c2ccccc2)c1	8.59%
CCCCN(CC)CCNC(=O)c1cc2c(=O)[nH]c3ccccc3c2s1	-25.8%
O=C(CCCC(=O)N1CCCC1)N1CCCC1	17.5%
COc1ccccc1C(=O)NNC(=O)c1ccc(Cl)cc1	19.4%
O=C(NN1C(=O)C2C(C1=O)C1C=CC2C12CC2)c1ccccc1 (centres unmarked)	-39.2%
COCCNS(=O)(=O)c1cc(OC)ccc1OC	23.8%
CC(=O)Nc1ccc(S(=O)(=O)NCC(=O)OCC(=O)NC23CC4CC(CC(C4)C2)C3)cc1	-0.592%
CC(=O)c1cccc(-n2nnnc2SCC(=O)N2CCCC2)c1	0.903%
O=C(Nc1nc(-c2ccccc2)cs1)c1ccc(=O)[nH]c1	10.2%
Cc1cc(Nc2ncc(Cl)cc2Cl)n[nH]1	14.4%
O=C(COC(=O)c1ccco1)Nc1nc2ccccc2s1	9.98%
O=C(Cn1cnc2cc([N+](=O)[O-])ccc2c1=O)Nc1ccc(Br)cc1	6.78%
COC(=O)CSc1ccc(-c2nc3ccc(C)cc3[nH]2)cn1	-5.01%
Cn1c(CSCc2ccc(F)cc2)nnc1SCC(=O)N1CCN(c2ccccc2)CC1	-70.7%
CC(=O)Oc1ccc(Cl)cc1/C=C/c1ccc2ccccc2n1	8.35%

SMILES	hERG current change (%, negative = inhibition) at 10uM
COc1cccc(/C=N/Nc2nc(Nc3ccccc3)nc(-n3nc(C)cc3C)n2)c1O	15.4%
CC1CCN(CC(=O)Nc2nn(-c3ccccc3)nc2C(N)=O)CC1	11.1%
CCN(Cc1nc(-c2cccc(Cl)c2)no1)CC1CCCO1 (centres unmarked)	1.7%
Cc1nn(-c2cc(Cl)ccc2Cl)c(C)c1C(=O)O	13.2%
O=C(c1cccnc1)N1CCN(c2ccc(Cl)cc2)CC1	-22.1%
Cc1c(C=C2C(=O)N(C)C(=S)N(C)C2=O)c2ccccc2n1CC(=O)NCC1CCCO1 (centres unmarked)	4.95%
CC(=O)c1cccc(NC(=O)CCc2nnc3ccc(N4CCOCC4)nn23)c1	21.2%
CC(C)(C)c1nnc2sc(SC/C(O)=C(\C#N)c3nc4ccccc4[nH]3)nn2c1=O	-1.59%
CCOc1cc(/C=N/NC(=O)c2ccncc2)ccc1OS(C)(=O)=O	-3.33%
O=c1ccc(-c2ccc(S(=O)(=O)Nc3ccc(F)cc3)o2)n[nH]1	-0.825%
Cc1ccc(-c2noc(CSc3ccccc3)n2)cc1	10.2%
Cl.c1coc(CN(Cc2ccco2)c2ncnc3c2oc2ccccc23)c1	-26.6%
CCOC(=O)c1c(NC(=O)CSc2nc3c(c(=O)n(C)c(=O)n3C)n2C(C)C)sc(C)c1C	-0.527%
O=C(Cn1c(=O)oc2ccccc21)Nc1ccc(Br)cc1	10.7%
O=C(Nc1ccc(Cl)cc1C(F)(F)F)C(Sc1cccc[n+]1[O-])c1ccccc1 (centres unmarked)	-81.3%
Cc1ccc(C2=Nc3ccc(Br)cc3C(c3ccncc3)=NN2)cc1	-19.8%
COc1cc2c(=O)n(Cc3ccco3)c(=O)n(CC(=O)c3cccc(Br)c3)c2cc1OC	3.03%
O=C(Nc1ccc(Cl)c(Cl)c1)OCCNC(=O)c1cccc(Cl)c1	7.78%
COc1ccc(-c2nnc(SCC(=O)NC3CC3)o2)cc1	3.94%
Cc1ccc(/C=C2\SC(N3CCN(C(c4ccccc4)c4ccccc4)CC3)=NC2=O)o1	17.8%
CCN(c1ccccc1)S(=O)(=O)c1cc(C(=O)Nc2ccc(F)c(F)c2)ccc1F	-8.4%
CCOC(=O)/C(C#N)=C/c1ccc(-c2ccsc2C(=O)OC)o1	0.545%

SMILES	hERG current change (%, negative = inhibition) at 10uM
COc1ccc(C(=O)OCc2cc3cccc(C)c3[nH]c2=O)cc1	14.2%
COc1ccc(C2c3c(-c4ccccc4O)n[nH]c3C(=O)N2Cc2ccco2)cc1 (centres unmarked)	-1.4%
O=C(NN=C1C2CC3CC1CC(Cl)(C3)C2)c1cccs1	8.54%
C=CCN1C(=O)c2ccc(C(=O)N3CCN(S(=O)(=O)c4cc(C)ccc4C)CC3)cc2C1=O	-36.2%
CCOC(=O)c1cccc(NC(=O)CN(c2ccc(C)cc2)S(=O)(=O)c2c(C)noc2C)c1	11.8%
CN(C)c1ccc(N2CN=C3SCC(=O)N3C2)cc1	15.4%
NS(=O)(=O)c1ccc(CCNC(=O)c2ccc(NS(=O)(=O)c3ccc4[nH]c(=O)[nH]c4c3)cc2)cc1	-0.243%
COc1ccccc1CNc1ccc(Br)cn1	2.77%
COc1cc(NC(=O)c2ccc3c(c2)S(=O)(=O)N=C2CCCCCN23)cc(OC)c1	16.1%
Cc1cc(-c2ccccc2)c2c(=O)n(-c3ccccc3)[nH]c2n1	13.1%
CCCCn1c(SCC(=O)NCC2CCCO2)nc2ccc(N3CCOCC3)cc2c1=O (centres unmarked)	-26.9%
CC(C)N1CCC2(CC1)Oc1ccc(Br)cc1C1CC(c3cccnc3)=NN12 (centres unmarked)	-38.5%
COc1ccc(S(=O)(=O)Nc2cc(C)on2)cc1OC	8.54%
S=C(N/N=C/c1ccc2c(c1)OCO2)NC1CC2CCC1C2 (centres unmarked)	18.9%
Cc1ccc(NC(=S)NCCc2c[nH]c3ccccc23)c(C)c1	-13.9%
Cc1ccc(NC(=O)CN2C(=O)S/C(=C\c3cccn3-c3cccc(C(=O)O)c3)C2=O)cc1C	25.7%
O=C(CCS(=O)(=O)Cc1ccc(Cl)cc1)NCCc1ccccc1	3.13%
OC1(c2ccc(F)cc2)CN(c2ccccc2)C2=[N+]1CCS2.[Br-] (centres unmarked)	-13.9%
CCOC(=O)c1cccc(NC(=O)CN(c2ccc(C)cc2)S(=O)(=O)c2c(C)n[nH]c2C)c1	-20.2%
O=C(CSc1nnc(CNc2ccc(Cl)cc2)o1)Nc1nc2ccccc2s1	9.77%
